The list shows a part of the results. At the low end of the ranking the order means little.

This experiment concerns the target SIX1-Q177R homeodomain (UniProt Q15475). Nature of the experiment: universal protein binding microarray. Particulars: Universal all-10-mer PBM (8x60K, AMADID 030236), 300 nM GST-tagged protein, Alexa Fluor 488 anti-GST; buffer, salt, pH and temperature not stated; high values mean tight binding; most listed sequences are background and not binding sites; double strand, one strand shown.
Take AGTAAAAG: the binding signal was 0.089 E-score. The figure for GCAGCTTA is -0.138 E-score; for AAAGCTCG it is -0.282 E-score; for AACGAGAT it is -0.266 E-score. Take ACATAACC: the binding signal was -0.151 E-score. With TGTCCCAA, the binding signal was found to be 0.137 E-score. Take AAGCGATT: the binding signal was -0.16 E-score. In the case of AACCCCAG it was 0.154 E-score. On to CAGCCATA, for which the binding signal is -0.0267 E-score. In the case of CTTCGGCA it was -0.158 E-score. In the case of AACCGAAA it was -0.118 E-score; in that of AAACTCTC, 0.0069 E-score; in that of GCAGCGAC, 0.0291 E-score. In the case of GCAATAAC it was -0.0696 E-score. For the sequence ATCGTTCG, the binding signal was -0.0971 E-score. In the case of CAAGGTAC, the binding signal was -0.0189 E-score. The figure for TAGATTCA is -0.201 E-score.

Turning to GAGTACGC, the binding signal was 0.055 E-score.

ATGAAGGG: the binding signal was -0.114 E-score.

For the sequence CAGGGAGG, the binding signal is 0.014 E-score. As to CAGACAAG, the binding signal was -0.0533 E-score. The figure for AACTGACG is -0.239 E-score; for CCTGACCG it is -0.0363 E-score; for CGTCTCAG it is -0.00792 E-score. In the case of ATCATTAC, the binding signal was -0.0678 E-score. The figure for GTGAATGA is -0.104 E-score. The figure for ACGGGGGC is 0.144 E-score. The figure for CGAGTTAC is 0.0849 E-score. Take ACATGTCC: the binding signal was -0.101 E-score. Regarding ACGAAAGG, the binding signal is 0.0997 E-score. Consider CAGATACC, for which the binding signal was 0.218 E-score. ACCCGAAG: the binding signal was 0.0858 E-score. For the sequence ATGGCACG, the binding signal is -0.0447 E-score. In the case of CGCCTTTC it was -0.193 E-score; in that of CCCGACTA, 0.135 E-score. In the case of CGTCTTTC it was -0.392 E-score; in that of GACCATAA, -0.183 E-score. In the case of GGGTCTCA it was 0.162 E-score; in that of CCAGTCTC, -0.152 E-score. With ATTTGGGC, the binding signal is -0.235 E-score. The figure for ACTGATGG is -0.0804 E-score. Consider GAGTAGGC, for which the binding signal amounted to 0.0572 E-score. The figure for AAATAGTG is 0.108 E-score.

With CCCTCGTC, the binding signal came to 0.0131 E-score.

For TGCCCCCA, the binding signal is -0.282 E-score. As for CGGCGTAA, the binding signal came out at 0.0171 E-score. The figure for CGTAGCCC is 0.0124 E-score; for GCGGGGTA it is 0.233 E-score.

For CAAACAGC, the binding signal is -0.165 E-score. Regarding GGTGGTCA, the binding signal is -0.101 E-score. On to CGTACTCC, for which the binding signal turned out to be 0.221 E-score. For AATCAAGA, the binding signal was -0.0217 E-score. Turning to CAGGATGG, the binding signal is -0.193 E-score. In the case of CAATACCG it was 0.000605 E-score; in that of CACGAAAC, 0.152 E-score. In the case of ACGTTGGC it was -0.238 E-score; in that of ATAACGGA, 0.0421 E-score; in that of TAACGGAA, -0.17 E-score.

Take CAGTTACC: the binding signal was 0.0535 E-score. With CGTGACAA, the binding signal came to 0.0289 E-score.

For the sequence CAAAAACA, the binding signal was found to be 0.042 E-score. The figure for ATCCGTAA is -0.161 E-score. In the case of ATCATAGC it was 0.0699 E-score; in that of CTAGTTTC, -0.0634 E-score. AGTCCTTC: the binding signal was -0.0766 E-score. In the case of AACAGCCC it was -0.215 E-score; in that of AGGGAGCG, 0.00641 E-score; in that of CTGAAAAG, -0.0197 E-score. ACTGAAGA: the binding signal was -0.216 E-score. Regarding GGGGACTA, the binding signal came to 0.0135 E-score.

For the sequence AGGCATCC, the binding signal was -0.0733 E-score. For the sequence GCGCTCCA, the binding signal was -0.117 E-score. For the sequence CAGGGTGA, the binding signal came out at 0.00169 E-score. In the case of ATCAGTGG it was -0.00236 E-score; in that of ACAAAATG, 0.0689 E-score.

Turning to ACTATAGC, the binding signal amounted to 0.0481 E-score. For AGTGTCGA, the binding signal was 0.408 E-score. Turning to ACCCTGTA, the binding signal turned out to be 0.153 E-score. Take AACCCGAC: the binding signal was found to be 0.149 E-score. CCCTTGCC: the binding signal is -0.0706 E-score. In the case of AACACCCT it was 0.461 E-score; in that of CTCTGCCC, -0.15 E-score; in that of GTCTGCAA, -0.054 E-score. Take GACCTCAA: the binding signal came out at 0.101 E-score.

As to TAACTAAA, the binding signal stood at 0.0528 E-score. The figure for ACCTGATA is 0.109 E-score.

With AAGGGAAT, the binding signal is -0.204 E-score. The figure for AAAGATGG is -0.132 E-score; for CATACACA it is 0.205 E-score; for ATGTGGAC it is -0.0763 E-score. On to ACGGGCCG, for which the binding signal is 0.129 E-score. For the sequence CAATTTGG, the binding signal was -0.166 E-score. Take ATGCCGCG: the binding signal is -0.0437 E-score. The figure for CTCTGCTA is -0.264 E-score; for CATCTCCC it is -0.13 E-score. Regarding ACCCATAC, the binding signal worked out at 0.104 E-score.

For the sequence ACACTATG, the binding signal is 0.328 E-score.

For the sequence AAGGAACA, the binding signal came out at 0.0817 E-score.

Turning to ATAAGATG, the binding signal was -0.168 E-score. Turning to CGCGCTAA, the binding signal is -0.09 E-score. In the case of CCCGGGAG it was 0.189 E-score.

In the case of AATATGGG, the binding signal is -0.148 E-score. The figure for CATCACGC is -0.278 E-score. Turning to AGATCCCG, the binding signal stood at 0.0946 E-score. In the case of CACCGTGG it was 0.333 E-score. For CTTCTAGA, the binding signal was -0.197 E-score. In the case of CCACGTCC it was -0.147 E-score; in that of ACTAAAAA, -0.071 E-score. Consider CAAATTCG, for which the binding signal is -0.104 E-score. In the case of CAGCAAGC, the binding signal was -0.191 E-score. As for AGGGATGG, the binding signal was 0.0847 E-score. As to CTTCATTC, the binding signal is -0.096 E-score. For CCAACTTA, the binding signal came to 0.0473 E-score. With GGCATAAC, the binding signal was -0.035 E-score. The figure for CACGATCA is 0.125 E-score.

Consider CGCATTAC, for which the binding signal was 0.204 E-score. Turning to CATCTCAG, the binding signal was -0.103 E-score.

On to CAGAAGAA, for which the binding signal is -0.187 E-score.

On to GATTGCGC, for which the binding signal is -0.249 E-score. In the case of CCCATCGA it was -0.122 E-score; in that of GCCTGAAC, -0.0897 E-score; in that of GGCACTTA, -0.0352 E-score. GGTGGCGA: the binding signal amounted to 0.0268 E-score. The figure for AGCCTTAA is -0.152 E-score; for CCTAAAAA it is -0.188 E-score; for GAATGCTA it is -0.172 E-score. In the case of GATGGCAC it was 0.0604 E-score.

In the case of GATGTAAA, the binding signal was -0.0112 E-score. In the case of GACAATCC it was -0.0342 E-score; in that of CCGTTAGC, -0.227 E-score; in that of AGCAAACG, -0.261 E-score. As for CCTATGCG, the binding signal was -0.0382 E-score.

As for AATCAGAC, the binding signal is -0.0743 E-score. The figure for GAGGAAAA is -0.266 E-score. Consider ACATACCA, for which the binding signal is -0.085 E-score.

Regarding ACATCCCG, the binding signal amounted to 0.128 E-score. The figure for GTTAGTCA is -0.108 E-score; for ACTCAGCA it is 0.0239 E-score. Turning to ACTTAAGC, the binding signal was -0.151 E-score. For the sequence AGAGCCAA, the binding signal is -0.18 E-score.

Turning to ATAGATGG, the binding signal was -0.0369 E-score. As to CTCCCGGC, the binding signal stood at 0.152 E-score.

With CACAGGAC, the binding signal stood at 0.0327 E-score. With GCCCGTAC, the binding signal is -0.0763 E-score.

Turning to GCAGTCGC, the binding signal was -0.197 E-score. The figure for CAAGAGTG is 0.0757 E-score; for ACACTAGA it is 0.318 E-score; for CCCGCGGA it is -0.0148 E-score. In the case of ATAACATC it was 0.126 E-score. In the case of ACACTGCC it was 0.429 E-score; in that of AGGGCCAG, -0.215 E-score; in that of ACCCCCAC, 0.282 E-score.

For the sequence CATGGGAA, the binding signal is -0.00726 E-score. In the case of ATATCGTG it was 0.118 E-score; in that of CAATTGAC, 0.0182 E-score; in that of AGGCCTAT, -0.0739 E-score. Regarding ACAGGGGA, the binding signal is -0.0189 E-score.

For the sequence AGACAACG, the binding signal was -0.0164 E-score. The figure for CGGGGCCC is -0.0725 E-score; for ATGGCGGC it is -0.247 E-score; for TGGCAGAA it is -0.191 E-score. Take ATCCCTAG: the binding signal was 0.154 E-score. As for CCGTCGCA, the binding signal was -0.197 E-score.

With CGAGTACC, the binding signal is 0.168 E-score. Consider ACTGGAGC, for which the binding signal was -0.0802 E-score. In the case of ACGCCTCG it was 0.104 E-score; in that of AAACTGCG, -0.145 E-score. With ACCTCAAC, the binding signal was 0.27 E-score. As to AGTCAGCA, the binding signal is -0.153 E-score. The figure for GAAGTTGA is -0.112 E-score. The figure for ATTATCTA is -0.0424 E-score. On to GTGCCTAA, for which the binding signal was -0.148 E-score.

For the origin of these results see paper PMC10668032.
